# In article PMC4336329 (PLoS ONE, 2015):
# In all, about 310,000 compounds went through this assay and about 14,000 (4.5%) showed an effect of 50% or more. The effect is printed as a negative number. Some of the results follow.
# Molecular target: human ether-à-go-go-related gene (hERG) potassium channel (human, UniProt Q12809)
# Assay: primary screen, population patch clamp on CHO cells stably expressing hERG
# 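Further: peak tail current of the secondary pulse compared with the same well before compound.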
# Chain of human ether-à-go-go-related gene (hERG) potassium channel (Q12809 whole entry, looked up): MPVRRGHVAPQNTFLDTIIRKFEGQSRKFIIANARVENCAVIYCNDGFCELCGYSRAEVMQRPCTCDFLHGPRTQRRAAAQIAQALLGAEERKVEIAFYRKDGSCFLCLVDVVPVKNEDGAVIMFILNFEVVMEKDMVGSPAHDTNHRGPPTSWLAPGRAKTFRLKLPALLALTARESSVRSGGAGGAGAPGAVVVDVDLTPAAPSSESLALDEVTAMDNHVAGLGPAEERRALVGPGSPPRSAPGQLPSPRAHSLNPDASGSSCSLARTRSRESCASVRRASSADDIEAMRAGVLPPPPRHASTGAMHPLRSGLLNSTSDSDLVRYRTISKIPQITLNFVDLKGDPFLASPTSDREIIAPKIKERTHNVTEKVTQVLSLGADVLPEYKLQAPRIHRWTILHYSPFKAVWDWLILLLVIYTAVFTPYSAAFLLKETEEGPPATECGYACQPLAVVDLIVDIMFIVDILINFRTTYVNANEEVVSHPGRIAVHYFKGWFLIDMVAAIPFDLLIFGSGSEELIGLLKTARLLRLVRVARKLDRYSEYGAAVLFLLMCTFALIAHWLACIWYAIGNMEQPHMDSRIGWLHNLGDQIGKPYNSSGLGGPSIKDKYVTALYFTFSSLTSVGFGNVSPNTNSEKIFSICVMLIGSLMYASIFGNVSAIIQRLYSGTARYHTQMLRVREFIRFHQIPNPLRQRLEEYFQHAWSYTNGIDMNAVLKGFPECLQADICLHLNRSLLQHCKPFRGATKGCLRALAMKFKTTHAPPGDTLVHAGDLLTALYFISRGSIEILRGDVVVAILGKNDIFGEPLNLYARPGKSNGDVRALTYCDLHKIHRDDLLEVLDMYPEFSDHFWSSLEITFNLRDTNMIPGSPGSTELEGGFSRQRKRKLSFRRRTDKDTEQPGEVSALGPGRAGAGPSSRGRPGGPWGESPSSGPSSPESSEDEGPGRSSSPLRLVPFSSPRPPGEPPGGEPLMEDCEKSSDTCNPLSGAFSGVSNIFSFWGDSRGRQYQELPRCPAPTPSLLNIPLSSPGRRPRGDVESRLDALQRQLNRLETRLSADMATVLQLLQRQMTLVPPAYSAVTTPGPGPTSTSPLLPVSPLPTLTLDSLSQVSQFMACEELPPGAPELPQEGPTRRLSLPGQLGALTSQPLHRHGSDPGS
row,Compound,"hERG current change (%, negative = inhibition) at 10uM"
1,CCS(=O)(=O)c1ccc(O)c(NC(=O)COc2ccc(OC)cc2)c1,1.82%
2,O=C(c1ccco1)N1CCN(C(=O)c2cc3c(=O)oc4ccccc4c3s2)CC1,-62.9%
3,Nc1nc2n(n1)C(c1cccc(Br)c1)CC(c1ccc(F)cc1)N2 (centres unmarked),-32.7%
4,CCc1ccccc1N1C(=O)/C(=C/c2ccc(N3CCN(C)CC3)o2)C(=O)NC1=S,1.18%
5,O=C1CN(C(=S)NC(=O)c2ccc(-c3ccccc3)cc2)CCN1,4.57%
6,O=c1c2ccccc2sn1-c1ccc(S(=O)(=O)N2CCCCC2)cc1,-0.622%
7,CC(=O)Nc1cccc(NC(=O)CSc2nnc(Cc3cccn3C)n2CCc2ccccc2)c1,-14.9%
8,COc1ccccc1CNC(=O)Cn1cccc1,1.51%
9,Fc1cccc(NC(=S)Nc2cccc3ccccc23)c1,-21.3%
10,O=C(O)CCCCCCCCCCCNC(=O)NC12CC3CC(CC(C3)C1)C2,29.7%
11,Cl.OC(COCCC12CC3CC(CC(C3)C1)C2)CN1CCCC1 (centres unmarked),-30.3%
12,COc1ccc(-n2c(/C=C/c3cccc(F)c3)nc3ccccc3c2=O)c(OC)c1,17.9%
13,COCCOC(=O)c1c(N)n(Cc2ccccc2)c2nc3ccccc3nc12,-36.5%
14,Cc1ccnc(NS(=O)(=O)c2ccc(-n3cccn3)cc2)c1,19.1%
15,COc1ccccc1C(=O)NC(=O)COC(=O)CN1C(=O)NC(C)(C)C1=O,38.2%
16,NC(=O)C1CCN(CC(=O)Nc2cccc(C(=O)Nc3cccc(C(F)(F)F)c3)c2)CC1,-20.9%
17,O=C(O)c1ccccc1S(=O)(=O)NCC(O)COC1CCCCC1 (centres unmarked),-2.65%
18,CCc1nc(NC2CCCCC2)c(C#N)c2c1COC(C)(C)C2,-7.21%
19,O=C1c2cccnc2Oc2ccc(Cl)cc2N1Cc1ccc(F)cc1,-12%

row,Compound,"hERG current change (%, negative = inhibition) at 10uM"
1,Cc1nn(-c2cc(N3CCOCC3)ccc2N)c(=O)c2ccccc12,0.574%
2,COc1cc2c(cc1OC)C(C)N(C(=O)Cn1ncc3c1-c1ccccc1OC3)CC2 (centres unmarked),-16.2%
3,CC(=O)Nc1ccc(S(=O)(=O)NC(=O)C23CC4CC(CC(C4)C2)C3)cc1,11.3%
4,CCCCC(=O)Nc1sc2c(c1C(N)=O)CCC2,-8.36%
5,CC1CN(C(=O)CS(=O)(=O)Cc2ccccc2)CC(C)O1 (centres unmarked),17.1%
6,CCOc1ccc(NC(=S)Nc2cc(OC)c(Cl)cc2OC)cc1,9.86%
7,Cc1c(C(=O)O)c(C(=O)O)c2n1CCS2,13.1%
8,Cc1ccc(SCCC(=O)N2CCOCC2)cc1,-7.3%
9,C/C(CC(=O)Nc1ccc(Cl)cc1Cl)=N\NC(=O)c1ccco1,-9.19%
10,O=C1CN(C(=O)c2ccc(F)c(S(=O)(=O)N3CCOCC3)c2)c2ccccc2N1,63.3%
11,Cc1nc(N2CCC(C(N)=O)CC2)c2c(-c3cccs3)csc2n1,-0.812%
12,CCC(=O)Nc1ccccc1N1CCN(S(C)(=O)=O)CC1,7.15%
13,Cc1nc2ccc(C(=O)N3CCN(c4ccccc4)CC3)cc2s1,-6.64%
14,Cc1ccccc1-n1nnnc1SCC(=O)Nc1ccc(S(=O)(=O)N2CCCC2)cc1,18.8%
15,COC(=O)c1ccc(Cl)c(NC(=O)NC23CC4CC(CC(C4)C2)C3)c1,5.14%
16,Cc1ccc(S(=O)(=O)N2CCN(C(=O)c3ccc([N+](=O)[O-])cc3)C2)cc1,-60%
17,COc1ccc(CN2CC[C@H]3C=CC[C@@H](C(=O)NCCc4ccccc4)[C@H]3C2=O)cc1OC,-4.84%
18,CCCC(=O)C1=C(O)C(C(=O)OC)C(C)(C)CC1=NCCc1ccccc1 (centres unmarked),-16.3%
19,COC(=O)CNC(c1ccccc1)c1cc(Cl)ccc1NC(=O)c1cccc(Cl)c1 (centres unmarked),-2.42%

row,Compound,"hERG current change (%, negative = inhibition) at 10uM"
1,COCCNC(=S)N1CCN(C(c2ccccc2)c2ccccc2)CC1,-10.1%
2,Cc1cc(OCC(=O)NCc2ccncc2)c2c3c(c(=O)oc2c1)CCCC3,-62.2%
3,CC1CN(c2ccc(Oc3ccccc3)cc2)c2nc3c(c(=O)n(CC(N)=O)c(=O)n3C)n2C1 (centres unmarked),-2.2%
4,CCNC(=S)N(CCO)Cc1cc2cc3c(cc2[nH]c1=O)OCO3,6.85%
5,CCCCC(CC)C(=O)Nc1ccc(C#N)cc1 (centres unmarked),-52.5%
6,COc1ccc(C2CC(c3c(O)n(CCc4ccccc4)c(=O)[nH]c3=O)=NN2)cc1OC (centres unmarked),-8.69%
7,O=C(O)CSc1nnc(-c2ccccc2O)n1Cc1ccccc1,-3.45%
8,CC(C)[C@H](NC(=O)N1CC(=O)Nc2ccccc21)C(=O)N[C@H](Cc1ccccc1)C(=O)O,6.01%
9,CSc1ccc(C(c2c(C)[nH][nH]c2=O)c2c(C)[nH][nH]c2=O)cc1,14.6%
10,CCn1c(SC)nc(O)c(C(c2ccc(OC)c(O)c2)c2c(O)nc(SC)n(CC)c2=O)c1=O,10.6%
11,CSc1ccc(CNC(=O)C2CCC(=O)N(CCc3cccc(F)c3)C2)cc1 (centres unmarked),-77.1%
12,CCOC(=O)c1cc(-c2ccc(OC)cc2OC)nn1-c1ccc(C(=O)O)cc1,19.5%
13,CC(C)(NO)/C(=N\O)c1ccc(Cl)cc1.Cl,4.54%
14,CN(C)S(=O)(=O)c1cccc(C(=O)OCC(=O)c2ccc3c(c2)NC(=O)CO3)c1,-11.8%
15,O=C1c2ccccc2C(=O)N1CCCn1c(=O)oc2ccccc21,11.4%
16,Cc1cccc(C)c1OCC(=O)N1CC2(C)CC1CC(C)(C)C2 (centres unmarked),-7.94%
17,Cc1sccc1/C=N/NC(=O)c1ccco1,7.32%
18,CCOC(=O)N1CCN(C(=O)COc2ccc([N+](=O)[O-])cc2)CC1,-43%
